The list shows a part of the results.
Experiments:
Test in all cases: glycan array binding signal (z-score within array); higher = stronger binding
Conditions in all cases: glycan notation: IUPAC condensed, linker removed; mutation: Y228W
Gal(a1-3)Gal(b1-4)GlcNAc = target: Gal(a1-3)Gal(b1-4)GlcNAc
Procedure, shortened: (§1)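 The binding signal is a Z-score computed within each array and averaged over linkers. Arrays of the same protein sequence at different concentrations or buffers were also averaged together. Data originate from 3228 arrays in the Consortium for Functional Glycomics database, kept only where the protein sequence was available.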

[1] = target: Gal(a1-3)Gal(b1-4)GlcNAc(b1-2)Man
Procedure, shortened: as §1

[2] = target: Gal(a1-3)Gal(b1-4)GlcNAc(b1-2)Man(a1-3)[Gal(a1-3)Gal(b1-4)GlcNAc(b1-2)Man(a1-6)]Man(b1-4)GlcNAc(b1-4)GlcNAc
Procedure, shortened: as §1

[3] = target: Gal(a1-3)Gal(b1-4)GlcNAc(b1-3)GalNAc
Procedure, shortened: as §1

[4] = target: Gal(a1-3)Gal(b1-4)GlcNAc(b1-6)GalNAc
Procedure, shortened: as §1

[5] = target: Gal(a1-3)Gal(b1-4)[Fuc(a1-3)]GlcNAc
Procedure, shortened: as §1

[6] = target: Gal(a1-3)Gal(b1-4)[Fuc(a1-3)]GlcNAc(b1-2)Man(a1-3)[Gal(a1-3)Gal(b1-4)[Fuc(a1-3)]GlcNAc(b1-2)Man(a1-6)]Man(b1-4)GlcNAc(b1-4)GlcNAc
Procedure, shortened: as §1

Gal(a1-3)GalNAc = target: Gal(a1-3)GalNAc
Procedure, shortened: as §1

[7] = target: Gal(a1-3)[Gal(a1-4)]Gal(b1-4)GlcNAc
Procedure, shortened: as §1

[8] = target: Gal(a1-4)Gal(b1-3)GlcNAc(b1-2)Man(a1-3)[Gal(a1-4)Gal(b1-3)GlcNAc(b1-2)Man(a1-6)]Man(b1-4)GlcNAc(b1-4)GlcNAc
Procedure, shortened: as §1

Gal(a1-4)Gal(b1-4)Glc = target: Gal(a1-4)Gal(b1-4)Glc
Procedure, shortened: as §1

Gal(a1-4)Gal(b1-4)GlcNAc = target: Gal(a1-4)Gal(b1-4)GlcNAc
Procedure, shortened: as §1

[9] = target: Gal(a1-4)Gal(b1-4)GlcNAc(b1-2)Man(a1-3)[Gal(a1-4)Gal(b1-4)GlcNAc(b1-2)Man(a1-6)]Man(b1-4)GlcNAc(b1-4)GlcNAc
Procedure, shortened: as §1

[10] = target: Gal(a1-4)Gal(b1-4)GlcNAc(b1-3)Gal(b1-4)Glc
Procedure, shortened: as §1

Gal(a1-4)GlcNAc = target: Gal(a1-4)GlcNAc
Procedure, shortened: as §1

Gal(a1-6)Glc = target: Gal(a1-6)Glc
Procedure, shortened: as §1

Gal(b1-2)Gal = target: Gal(b1-2)Gal
Procedure, shortened: as §1

Gal(b1-3)Gal = target: Gal(b1-3)Gal
Procedure, shortened: as §1

Gal(b1-3)Gal(b1-4)GlcNAc = target: Gal(b1-3)Gal(b1-4)GlcNAc
Procedure, shortened: as §1

Gal(b1-3)GalNAc = target: Gal(b1-3)GalNAc
Procedure, shortened: as §1

[11] = target: Gal(b1-3)GalNAc(a1-3)[Fuc(a1-2)]Gal(b1-4)Glc
Procedure, shortened: as §1

[12] = target: Gal(b1-3)GalNAc(a1-3)[Fuc(a1-2)]Gal(b1-4)GlcNAc
Procedure, shortened: as §1

Gal(b1-3)GalNAc(b1-3)Gal = target: Gal(b1-3)GalNAc(b1-3)Gal
Procedure, shortened: as §1

[13] = target: Gal(b1-3)GalNAc(b1-3)Gal(a1-4)Gal(b1-4)Glc
Procedure, shortened: as §1

[14] = target: Gal(b1-3)GalNAc(b1-4)Gal(b1-4)Glc
Procedure, shortened: as §1

[15] = target: Gal(b1-3)GalNAc(b1-4)[Neu5Ac(a2-3)]Gal(b1-4)Glc
Procedure, shortened: as §1

Gal(b1-3)GlcNAc = target: Gal(b1-3)GlcNAc
Procedure, shortened: as §1

[16] = target: Gal(b1-3)GlcNAc(a1-3)Gal(b1-4)GlcNAc
Procedure, shortened: as §1

[17] = target: Gal(b1-3)GlcNAc(a1-6)Gal(b1-4)GlcNAc
Procedure, shortened: as §1

Gal(b1-3)GlcNAc(b1-2)Man = target: Gal(b1-3)GlcNAc(b1-2)Man
Procedure, shortened: as §1

B1: Epa1-NP-mutant-Y228W (Candida glabrata), Q6VBJ0 (protein)
chain: MILNPALFLNKCVCIYTTLILLLLTNGGYATSSNDISLASKDPTTFPLGCSPDITTPKKGLSMELYSYDFRKKGSYPCWDAAYLDPNYPRTGYKSHRLLAKVDGVTGNINFYYHATKGCTPQLGHLPASYNYPKPLTMTNFTMLLYGYFRPKVTGFHTFTISADDLLFVNFGAGNAFDCCRRDSSADHFGNYQAYAIWGSKTAKDELTVHLDAGVYYPIRLFYNNREWDGALSFTFKTESNENTVSDFSEYFFSLDDTEEGCPGLISYDSSCASVKTSKIIGIDYHTETPNENLVPITKTIYHLGIPCTGTTTTPLCGSGFYDPLANKCVTINTSSTSSVTKTTSHTTSKEVSFHSSISSQKTLIPKSIPSPYGPIKSQSIPTEMETSSEISSSEYAFSDVISTPSHSPYTKKHSSLNSSSYTSTVIHSLTSYSISQGIFSTSLSEQNITSKSSTDKFSTATSMSNNITQSSIIISQFSTNNENYTTTSMHTSSDKISTETLNNSISTTTSILFSNSSTILKNNTTIISSDKDTHYHPVNPTIVCSTNKTEIICASITQPSISNSNNHWSSSVLKFNSTTVRSTLPSSAGSNETSINVPFSSSTESNTSTSSTSTSNSKMVRSTLPSSAGSNETSISVPFSSSTESNTSTSSTSTSNSKMVRSTLPSSAGSNETSINVPFSSSTESNTSTSSTSTSNSKTVRSTPFSSAGIIMTSLSQRNNKSASSYASSNSKCYNTADSCRKVHSTPSYLLTSSYTSEGVDYDCSLVSTKLKINDTNCVNNKHTTKSCLKTSVTTTIPTLEIKTARKSSSNTIGLHSYPTSSPNKSISSAPIIGYISSFKTIKTASPSYQTSDLTTITTITSLNNPGSTAVENTHESNDKSRKTSSNDISSKHSVIKETKDAVESSNKSHQTNTLKCSSIIIASSSHNSYESLGGTTLTLTLSKVYSPQNNDTLPFLEISEVNPSRTVLPESSKMMQYLTSTEERNKTARNTIATNIVSISTFHFEGEGNAIRMGYTQLLLMLIGIIVMNIGT
Q: Which “glycan array binding signal (z-score)” value (Gal(a1-3)Gal(b1-4)GlcNAc) does the source give for B1 here?
A: The value was -0.293.

Q: What about the “glycan array binding signal (z-score)” value [1] of the same binder?
A: The value was -0.088.

Q: What about the “glycan array binding signal (z-score)” value [2] of the same binder?
A: The value was -0.175.

Q: And the “glycan array binding signal (z-score)” value [3]?
A: The value was -0.339.

Q: And the “glycan array binding signal (z-score)” value [4]?
A: Its value is -0.035.

Q: What about the “glycan array binding signal (z-score)” value [5] of the same binder?
A: Its value is -0.217.

Q: And the “glycan array binding signal (z-score)” value [6]?
A: Its value is 0.22.

Q: And the “glycan array binding signal (z-score)” value (Gal(a1-3)GalNAc)?
A: Its value is -0.239.

Q: What about the “glycan array binding signal (z-score)” value [7] of the same binder?
A: The value was -0.336.

Q: What about the “glycan array binding signal (z-score)” value [8] of the same binder?
A: The value was -0.007.

Q: What about the “glycan array binding signal (z-score)” value (Gal(a1-4)Gal(b1-4)Glc) of the same binder?
A: Its value is -0.197.

Q: What about the “glycan array binding signal (z-score)” value (Gal(a1-4)Gal(b1-4)GlcNAc) of the same binder?
A: The value was -0.087.

Q: What about the “glycan array binding signal (z-score)” value [9] of the same binder?
A: The value was 0.133.

Q: What about the “glycan array binding signal (z-score)” value [10] of the same binder?
A: The value was -0.061.

Q: And the “glycan array binding signal (z-score)” value (Gal(a1-4)GlcNAc)?
A: The value was -0.021.

Q: What about the “glycan array binding signal (z-score)” value (Gal(a1-6)Glc) of the same binder?
A: The value was -0.349.

Q: And the “glycan array binding signal (z-score)” value (Gal(b1-2)Gal)?
A: Its value is -0.247.

Q: And the “glycan array binding signal (z-score)” value (Gal(b1-3)Gal)?
A: Its value is 1.05.

Q: What about the “glycan array binding signal (z-score)” value (Gal(b1-3)Gal(b1-4)GlcNAc) of the same binder?
A: The value was 7.29.

Q: And the “glycan array binding signal (z-score)” value (Gal(b1-3)GalNAc)?
A: The value was 2.78.

Q: What about the “glycan array binding signal (z-score)” value [11] of the same binder?
A: The value was -0.009.

Q: And the “glycan array binding signal (z-score)” value [12]?
A: Its value is 0.177.

Q: What about the “glycan array binding signal (z-score)” value (Gal(b1-3)GalNAc(b1-3)Gal) of the same binder?
A: The value was 2.53.

Q: And the “glycan array binding signal (z-score)” value [13]?
A: Its value is 0.564.

Q: What about the “glycan array binding signal (z-score)” value [14] of the same binder?
A: Its value is 15.

Q: And the “glycan array binding signal (z-score)” value [15]?
A: Its value is 4.99.

Q: And the “glycan array binding signal (z-score)” value (Gal(b1-3)GlcNAc)?
A: The value was -0.24.

Q: And the “glycan array binding signal (z-score)” value [16]?
A: Its value is -0.338.

Q: And the “glycan array binding signal (z-score)” value [17]?
A: Its value is -0.286.

Q: And the “glycan array binding signal (z-score)” value (Gal(b1-3)GlcNAc(b1-2)Man)?
A: Its value is -0.27.

From the supplement of paper PMC8728848
